The other results are listed elsewhere or left out. The energies were worked out here from pooled read counts, against the library average; single values are noisy.
What follows are sequences tested against T1, Pho4 (S. cerevisiae) (UniProt P07270) (assay: relative binding free energy (BET-seq); higher = weaker binding). Conditions: reference: library average.
T1 sequence: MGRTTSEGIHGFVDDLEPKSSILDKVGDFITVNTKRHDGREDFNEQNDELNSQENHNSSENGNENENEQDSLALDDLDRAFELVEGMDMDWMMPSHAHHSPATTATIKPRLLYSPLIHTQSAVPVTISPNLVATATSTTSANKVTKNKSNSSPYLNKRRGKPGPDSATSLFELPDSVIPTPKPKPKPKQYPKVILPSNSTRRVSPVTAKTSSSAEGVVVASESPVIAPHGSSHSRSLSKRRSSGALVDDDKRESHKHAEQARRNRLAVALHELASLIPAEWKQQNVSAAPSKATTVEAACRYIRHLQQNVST

Sequence | relative binding free energy
AGGTCCACGTGGGTGC | -0.09 kcal/mol
TGTGTCACGTGCCTGG | -0.09 kcal/mol
GGTTACACGTGTAGAG | 0.09 kcal/mol
CAGTACACGTGGTGAG | 0.07 kcal/mol
TCCGTCACGTGGTTGT | -0.05 kcal/mol
ATTTACACGTGATTGG | 0.08 kcal/mol
ATACTCACGTGTATTT | 0.12 kcal/mol
TCATGCACGTGTGGTC | 0.01 kcal/mol
TGTAGCACGTGAGTGA | 0.01 kcal/mol
ATGGACACGTGGAAGG | 0.08 kcal/mol
GTCGGCACGTGGTCGA | -0.07 kcal/mol
GGGCTCACGTGAGTGG | 0.45 kcal/mol
GGGCCCACGTGGTTGT | -0.16 kcal/mol
AGTTCCACGTGGTTTA | 0 kcal/mol
GGTTGCACGTGGTTGT | -0.03 kcal/mol
TATTGCACGTGAAGGA | 0.14 kcal/mol
TTGTGCACGTGTCTGG | 0.17 kcal/mol
TTTGTCACGTGGCAGA | -0.04 kcal/mol
GATGGCACGTGAAGAT | 0.31 kcal/mol
GTCCGCACGTGGTTTG | -0.12 kcal/mol
TTAGACACGTGTTTCT | -0.04 kcal/mol
GGTAACACGTGTTGCT | 0.02 kcal/mol
TTATGCACGTGGCCAG | -0.09 kcal/mol
GGGTACACGTGATAAT | 0.32 kcal/mol
CGTGACACGTGTTGAA | 0.08 kcal/mol

Sequence | relative binding free energy
TATTTCACGTGGTAAA | 0.33 kcal/mol
AATTGCACGTGATTGG | 0.03 kcal/mol
ATGAACACGTGGGAAG | -0.04 kcal/mol
GGTGTCACGTGATTGA | 0.22 kcal/mol
GAGTTCACGTGGCCGG | 0.4 kcal/mol
GGAGACACGTGTGACG | 0.15 kcal/mol
TAGGACACGTGATTTG | 0.19 kcal/mol
AAGTCCACGTGCTGTG | 0.03 kcal/mol
TTGCTCACGTGTAGGC | 0.23 kcal/mol
TGTTGCACGTGGAATA | 0.02 kcal/mol
TACATCACGTGGTGGC | 0.13 kcal/mol
CGCATCACGTGGGGGT | -0.1 kcal/mol
GGGGACACGTGTTGCG | 0.08 kcal/mol
TATTTCACGTGGGTGG | 0.27 kcal/mol
TGTAGCACGTGTGGGA | -0.05 kcal/mol
CTCTGCACGTGGTTAG | -0.03 kcal/mol
AGGTTCACGTGGTGCC | 0.28 kcal/mol
CGGGTCACGTGAGAGT | 0.27 kcal/mol
GTAGTCACGTGCGTTA | 0.08 kcal/mol
GGCTGCACGTGTGGGT | 0.09 kcal/mol
CAGGGCACGTGTAAGT | 0.01 kcal/mol
GGTGCCACGTGGTATT | -0.1 kcal/mol
ACGGCCACGTGTGGGT | -0.05 kcal/mol
TGTTACACGTGTTAAC | 0.13 kcal/mol
AAGTGCACGTGGATAT | 0.05 kcal/mol

Sequence | relative binding free energy
AAGGACACGTGGGGAC | 0 kcal/mol
AGGCGCACGTGGTTGT | -0.13 kcal/mol
GGGAACACGTGCCGGG | 0.05 kcal/mol
TCAGGCACGTGTTTGT | -0.09 kcal/mol
TAGATCACGTGGGGTA | 0 kcal/mol
GTGAGCACGTGTTGCG | -0.16 kcal/mol
TAAGGCACGTGGGTTC | -0.08 kcal/mol
TAGTACACGTGGGTAA | -0.01 kcal/mol
GGTTGCACGTGAAGGT | 0.27 kcal/mol
TTGGGCACGTGGCGTC | -0.14 kcal/mol
TTGTCCACGTGTTCTA | 0.17 kcal/mol
GTTTGCACGTGCGCTG | 0.14 kcal/mol
TGTGTCACGTGTTCAA | -0.06 kcal/mol
CTGCGCACGTGGGGGT | -0.3 kcal/mol
GGGCTCACGTGGTGGT | 0.09 kcal/mol
TTGATCACGTGGGTTG | -0.02 kcal/mol
GGTGTCACGTGTGAAC | 0.15 kcal/mol
TGCGCCACGTGAGTGG | 0.1 kcal/mol
AGGGACACGTGGTTAA | -0.01 kcal/mol
TGGGGCACGTGAGGGC | 0.11 kcal/mol
GTAAGCACGTGGGAAG | 0.04 kcal/mol
CAGTTCACGTGAGTTG | 0.33 kcal/mol
CTTGTCACGTGTTTGA | 0.1 kcal/mol
GTTGGCACGTGGTGCC | -0.05 kcal/mol
TCGTGCACGTGTGATA | 0.03 kcal/mol

Sequence | relative binding free energy
TAGGGCACGTGTAGTT | 0.06 kcal/mol
ACATGCACGTGTTGTG | -0.16 kcal/mol
TAGGGCACGTGCGCAT | -0.2 kcal/mol
TATTTCACGTGGAATT | 0.32 kcal/mol
TTACGCACGTGGTTAG | -0.15 kcal/mol
CGTTTCACGTGTATGC | 0.27 kcal/mol
GGGGTCACGTGATTCT | 0.25 kcal/mol
GGATTCACGTGGTGGA | 0.23 kcal/mol
GTGTCCACGTGTAAGT | 0.11 kcal/mol
ACGGTCACGTGGGGGA | -0.03 kcal/mol
TAGGGCACGTGGGGGG | -0.22 kcal/mol
GTTGACACGTGGGAAA | -0.02 kcal/mol
TCGGTCACGTGAATGT | 0.37 kcal/mol
GAGCACACGTGTGAGG | 0.22 kcal/mol
AAGTACACGTGGGATG | -0.08 kcal/mol
TACGTCACGTGCTGGG | -0.11 kcal/mol
TAATGCACGTGTAGGA | 0.07 kcal/mol
TAACGCACGTGGTGCG | -0.1 kcal/mol
TGATTCACGTGTCATG | 0.28 kcal/mol
GGGGTCACGTGTAGCT | 0.12 kcal/mol
GTGGACACGTGACGTT | 0.12 kcal/mol
CTTGGCACGTGGAGAA | 0 kcal/mol
GATCGCACGTGTGTGT | -0.01 kcal/mol
GTTCTCACGTGGTTGG | 0.19 kcal/mol
AGATTCACGTGAGGTT | 0.39 kcal/mol

Sequence | relative binding free energy
AAATGCACGTGGTGCT | 0 kcal/mol
TTTTACACGTGTGGAC | 0.11 kcal/mol
TGAAGCACGTGTAGTG | 0.01 kcal/mol
GTTGACACGTGGAATG | 0.24 kcal/mol
TTTAACACGTGTGTCG | 0.04 kcal/mol
TTTTGCACGTGTCGAC | 0.13 kcal/mol
GGATTCACGTGGGTGT | 0.15 kcal/mol
CAGGGCACGTGGTTGT | -0.19 kcal/mol
GGTCCCACGTGGTAGT | 0.02 kcal/mol
TCGTACACGTGTATTT | 0.22 kcal/mol
AGGTCCACGTGTAGTG | -0.05 kcal/mol
TTTTACACGTGCGGGC | 0.2 kcal/mol
GGTGGCACGTGTGCAG | -0.03 kcal/mol
TGGAACACGTGGTATG | -0.08 kcal/mol
TTCCTCACGTGATTGT | 0.45 kcal/mol
ATAGGCACGTGGATTC | 0.04 kcal/mol
TGGTGCACGTGAGGCT | 0.18 kcal/mol
TATCGCACGTGTGATA | 0 kcal/mol
TATATCACGTGGACGG | 0.24 kcal/mol
TTTTTCACGTGCACTG | 0.15 kcal/mol
GGTTGCACGTGTATTC | 0.08 kcal/mol
ATGTTCACGTGGTCGA | 0.2 kcal/mol
GTAGCCACGTGTAGTT | 0.07 kcal/mol
AGGTTCACGTGATCTT | 0.43 kcal/mol
ATATGCACGTGTATAG | 0.04 kcal/mol

Sequence | relative binding free energy
TTTTTCACGTGAGTCT | 0.41 kcal/mol
ATGTTCACGTGTTGGT | 0.28 kcal/mol
TAAGCCACGTGTCGTG | 0.1 kcal/mol
GTGCTCACGTGTTAGT | 0.23 kcal/mol
GGTGACACGTGGATAG | 0.05 kcal/mol
GCGGTCACGTGAGATT | 0.44 kcal/mol
TCATGCACGTGGGGCG | -0.11 kcal/mol
CAATACACGTGGTGTG | -0.11 kcal/mol
TTATGCACGTGGATCT | -0.07 kcal/mol
TTGAGCACGTGTCGAT | -0.08 kcal/mol
TATTTCACGTGTCGTG | 0.15 kcal/mol
ATATGCACGTGAATTT | 0.07 kcal/mol
AGGTGCACGTGGTTTT | -0.17 kcal/mol
TATAGCACGTGTAGAG | 0.07 kcal/mol
AAGGGCACGTGGCATT | -0.22 kcal/mol
ATCCTCACGTGGTGGG | 0.17 kcal/mol
CTGTGCACGTGATGGA | 0.1 kcal/mol
CTTGGCACGTGTGAAG | -0.1 kcal/mol
GAAGTCACGTGGGACG | 0.04 kcal/mol
TGGTGCACGTGAGATC | 0.33 kcal/mol
TTGTGCACGTGCCGGG | -0.03 kcal/mol

From the BET-seq Pho4 binding data (Le et al. 2018)
